Laboratory results as given in article PMC5460038.
No constants are given. Whether binding was seen depends on the method and setting. Binding seen in cells or lysates may run through a third protein. Some binding calls cover weakened binding; strength is not graded here. For some of these results: Where a sequence is shown, tags or fusion partners need not be part of it.

By UniProt entry, the sequences of proteins in these tests, tags left out.
UniProt Q5MNZ6: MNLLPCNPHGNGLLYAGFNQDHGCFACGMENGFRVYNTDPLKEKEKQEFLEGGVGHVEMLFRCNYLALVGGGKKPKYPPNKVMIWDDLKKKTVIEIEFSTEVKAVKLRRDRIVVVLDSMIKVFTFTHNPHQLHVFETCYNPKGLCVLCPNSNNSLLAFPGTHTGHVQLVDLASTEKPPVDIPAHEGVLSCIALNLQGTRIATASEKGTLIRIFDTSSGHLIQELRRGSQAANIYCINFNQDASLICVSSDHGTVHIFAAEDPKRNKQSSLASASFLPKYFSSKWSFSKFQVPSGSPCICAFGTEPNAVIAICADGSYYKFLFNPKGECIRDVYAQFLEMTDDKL
UniProt Q61037: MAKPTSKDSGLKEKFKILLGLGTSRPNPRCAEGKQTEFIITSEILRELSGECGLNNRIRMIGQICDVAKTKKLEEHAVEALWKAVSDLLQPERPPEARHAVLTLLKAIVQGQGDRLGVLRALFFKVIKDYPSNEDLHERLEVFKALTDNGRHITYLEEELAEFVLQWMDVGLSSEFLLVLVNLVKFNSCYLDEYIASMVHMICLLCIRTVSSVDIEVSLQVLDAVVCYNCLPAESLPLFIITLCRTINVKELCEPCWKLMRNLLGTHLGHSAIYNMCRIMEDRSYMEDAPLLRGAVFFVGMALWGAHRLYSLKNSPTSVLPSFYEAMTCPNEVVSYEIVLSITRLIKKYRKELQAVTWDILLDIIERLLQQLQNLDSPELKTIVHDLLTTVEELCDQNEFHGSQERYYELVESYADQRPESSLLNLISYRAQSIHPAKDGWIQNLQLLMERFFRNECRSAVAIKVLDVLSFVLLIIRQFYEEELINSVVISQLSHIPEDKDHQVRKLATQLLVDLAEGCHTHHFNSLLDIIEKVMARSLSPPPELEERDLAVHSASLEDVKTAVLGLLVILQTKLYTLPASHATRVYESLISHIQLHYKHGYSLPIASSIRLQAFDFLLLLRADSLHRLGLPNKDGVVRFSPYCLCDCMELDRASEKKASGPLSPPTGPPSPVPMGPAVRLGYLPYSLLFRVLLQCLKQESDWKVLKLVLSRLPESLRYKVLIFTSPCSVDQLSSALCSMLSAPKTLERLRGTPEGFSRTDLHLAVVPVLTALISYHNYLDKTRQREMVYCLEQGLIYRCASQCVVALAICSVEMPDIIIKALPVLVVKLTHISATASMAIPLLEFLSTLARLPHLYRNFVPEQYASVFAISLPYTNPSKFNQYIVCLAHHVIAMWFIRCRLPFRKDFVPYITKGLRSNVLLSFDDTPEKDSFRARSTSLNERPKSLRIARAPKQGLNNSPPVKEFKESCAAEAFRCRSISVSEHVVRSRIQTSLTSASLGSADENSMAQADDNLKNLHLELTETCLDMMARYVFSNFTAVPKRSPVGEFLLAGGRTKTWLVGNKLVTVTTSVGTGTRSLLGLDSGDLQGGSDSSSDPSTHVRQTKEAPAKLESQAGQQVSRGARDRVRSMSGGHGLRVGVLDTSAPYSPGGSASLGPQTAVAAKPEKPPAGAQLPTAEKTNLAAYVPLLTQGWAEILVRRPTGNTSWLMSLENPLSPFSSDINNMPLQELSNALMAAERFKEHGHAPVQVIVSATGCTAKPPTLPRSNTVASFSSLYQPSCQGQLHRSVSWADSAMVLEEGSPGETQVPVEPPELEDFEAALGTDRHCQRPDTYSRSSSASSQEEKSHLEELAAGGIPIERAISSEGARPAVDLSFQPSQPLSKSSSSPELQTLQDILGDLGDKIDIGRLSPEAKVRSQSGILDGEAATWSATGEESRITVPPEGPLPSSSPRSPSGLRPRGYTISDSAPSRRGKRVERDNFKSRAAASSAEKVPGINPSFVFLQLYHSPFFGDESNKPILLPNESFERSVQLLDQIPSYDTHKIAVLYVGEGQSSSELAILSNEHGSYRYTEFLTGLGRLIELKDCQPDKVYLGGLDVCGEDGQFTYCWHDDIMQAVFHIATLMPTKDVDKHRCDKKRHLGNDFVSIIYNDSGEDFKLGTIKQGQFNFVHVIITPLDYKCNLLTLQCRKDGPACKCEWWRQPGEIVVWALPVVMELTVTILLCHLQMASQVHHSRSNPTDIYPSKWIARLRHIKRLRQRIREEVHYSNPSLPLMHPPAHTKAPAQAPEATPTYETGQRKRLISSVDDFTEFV

T1: GFP-WIPI1 (human) (UniProt Q5MNZ9)
T1 sequence: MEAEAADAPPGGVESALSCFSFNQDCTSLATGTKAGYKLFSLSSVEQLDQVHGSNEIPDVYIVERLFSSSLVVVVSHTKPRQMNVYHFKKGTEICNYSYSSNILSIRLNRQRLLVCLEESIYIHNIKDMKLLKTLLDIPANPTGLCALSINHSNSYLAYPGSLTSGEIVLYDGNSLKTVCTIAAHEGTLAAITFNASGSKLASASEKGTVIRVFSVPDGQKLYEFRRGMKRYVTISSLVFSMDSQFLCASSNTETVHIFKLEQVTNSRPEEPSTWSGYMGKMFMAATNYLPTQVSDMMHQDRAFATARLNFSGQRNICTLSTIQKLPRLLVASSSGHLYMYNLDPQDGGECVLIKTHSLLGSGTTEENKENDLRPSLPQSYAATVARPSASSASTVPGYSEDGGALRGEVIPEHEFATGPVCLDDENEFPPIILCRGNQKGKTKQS

T2: GFP-WIPI4 (human) (UniProt Q9Y484)
T2 sequence: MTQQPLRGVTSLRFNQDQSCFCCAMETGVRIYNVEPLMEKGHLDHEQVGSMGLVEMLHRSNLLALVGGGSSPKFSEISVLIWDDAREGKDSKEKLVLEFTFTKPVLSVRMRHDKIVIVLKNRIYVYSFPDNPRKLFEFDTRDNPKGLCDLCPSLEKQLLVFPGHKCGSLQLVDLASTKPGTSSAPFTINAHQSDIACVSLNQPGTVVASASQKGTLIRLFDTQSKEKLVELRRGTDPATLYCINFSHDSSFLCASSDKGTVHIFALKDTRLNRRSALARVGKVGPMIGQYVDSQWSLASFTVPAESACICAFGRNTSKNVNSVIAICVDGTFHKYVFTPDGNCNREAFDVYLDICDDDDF

T3: endogenous TSC1 (human (endogenous in U2OS)) (UniProt Q92574)
T3 sequence: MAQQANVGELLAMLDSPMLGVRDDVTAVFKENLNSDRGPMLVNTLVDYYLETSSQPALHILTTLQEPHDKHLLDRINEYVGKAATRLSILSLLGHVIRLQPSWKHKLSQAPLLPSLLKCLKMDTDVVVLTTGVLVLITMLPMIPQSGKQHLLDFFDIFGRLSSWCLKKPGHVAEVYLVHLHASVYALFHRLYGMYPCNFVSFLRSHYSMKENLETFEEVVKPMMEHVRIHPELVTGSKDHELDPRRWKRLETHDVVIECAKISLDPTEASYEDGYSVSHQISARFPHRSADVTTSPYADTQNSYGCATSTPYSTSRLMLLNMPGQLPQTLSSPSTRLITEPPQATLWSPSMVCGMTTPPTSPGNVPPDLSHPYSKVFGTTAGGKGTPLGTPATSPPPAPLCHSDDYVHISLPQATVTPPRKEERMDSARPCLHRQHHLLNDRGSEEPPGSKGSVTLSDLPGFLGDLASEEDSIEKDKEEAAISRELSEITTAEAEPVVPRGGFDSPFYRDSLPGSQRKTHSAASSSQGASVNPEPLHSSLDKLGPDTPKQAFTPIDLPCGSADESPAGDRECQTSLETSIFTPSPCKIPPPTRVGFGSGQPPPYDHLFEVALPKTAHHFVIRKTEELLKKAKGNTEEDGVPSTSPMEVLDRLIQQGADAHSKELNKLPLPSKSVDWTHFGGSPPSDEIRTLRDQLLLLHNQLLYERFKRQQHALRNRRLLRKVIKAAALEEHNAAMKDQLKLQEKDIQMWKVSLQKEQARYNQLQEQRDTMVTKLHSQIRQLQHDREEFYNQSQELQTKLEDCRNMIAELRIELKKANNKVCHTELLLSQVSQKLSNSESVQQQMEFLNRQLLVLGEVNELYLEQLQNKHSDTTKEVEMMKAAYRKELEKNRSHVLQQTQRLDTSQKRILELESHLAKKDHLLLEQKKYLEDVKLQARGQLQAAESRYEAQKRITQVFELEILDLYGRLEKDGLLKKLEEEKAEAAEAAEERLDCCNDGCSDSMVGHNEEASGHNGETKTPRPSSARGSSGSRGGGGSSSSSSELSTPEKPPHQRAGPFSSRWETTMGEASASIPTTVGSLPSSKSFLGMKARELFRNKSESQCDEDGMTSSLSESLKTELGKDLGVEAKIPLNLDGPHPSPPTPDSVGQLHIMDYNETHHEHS


Assays:
[1] = target: GFP-WIPI3 expressed in mouse embryonic fibroblasts (human) (UniProt Q5MNZ6); test: co-IP; ATG5 WT or KO MEFs expressing GFP-WIPI3 or GFP, fed or starved 3 h; anti-GFP immunoprecipitation, anti-TSC1 and anti-TSC2 immunoblotting
GFP-WIPI1 (human) = target: T1, GFP-WIPI1 (human); test: co-IP; GFP- and myc-tagged WIPI variants co-expressed (Supplementary Fig. 3a,b); which antibody precipitated is not shown
GFP-WIPI4 (human) = target: T2, GFP-WIPI4 (human); test: as above
[2] = target: T3, endogenous TSC1 (human (endogenous in U2OS)); test: co-IP; U2OS cells, endogenous proteins; anti-TSC1 immunoprecipitation, anti-WIPI1, anti-WIPI2, anti-WIPI3, anti-WIPI4 immunoblotting

Row | binding (GFP-WIPI4 (human)) | binding [2] | Molecule | also measured
1 | – | – | endogenous TSC2 (MEFs) (from UniProt Q61037 1-1814) | binding [1]: binds
2 | binds | – | myc-WIPI2D (protein, UniProt Q9Y4P8-2 1-425) MNLASQSGEAGAGQLLFANFNQDNTSLAVGSKSGYKFFSLSSVDKLEQIYECTDTEDVCIVERLFSSSLVAIVSLKAPRKLKVCHFKKGTEICNYSYSNTILAVKLNRQRLIVCLEESLYIHNIRDMKVLHTIRETPPNPAGLCALSINNDNCYLAYPGSATIGEVQVFDTINLRAANMIPAHDSPLAALAFDASGTKLATASEKGTVIRVFSIPEGQKLFEFRRGVKRCVSICSLAFSMDGMFLSASSNTETVHIFKLETVKEKPPEEPTTWTGYFGKVLMASTSYLPSQVTEMFNQGRAFATVRLPFCGHKNICSLATIQKIPRLLVGAADGYLYMYNLDPQEGGECALMKQHRLDGSLETTNEILDSASHDCPLVTQTYGAAAGKAYTDDLGAVGGACLEDEASALRLDEDSEHPPMILRTD | binding (GFP-WIPI1 (human)): binds
3 | – | no binding | endogenous WIPI4 (protein, UniProt Q9Y484 1-360) MTQQPLRGVTSLRFNQDQSCFCCAMETGVRIYNVEPLMEKGHLDHEQVGSMGLVEMLHRSNLLALVGGGSSPKFSEISVLIWDDAREGKDSKEKLVLEFTFTKPVLSVRMRHDKIVIVLKNRIYVYSFPDNPRKLFEFDTRDNPKGLCDLCPSLEKQLLVFPGHKCGSLQLVDLASTKPGTSSAPFTINAHQSDIACVSLNQPGTVVASASQKGTLIRLFDTQSKEKLVELRRGTDPATLYCINFSHDSSFLCASSDKGTVHIFALKDTRLNRRSALARVGKVGPMIGQYVDSQWSLASFTVPAESACICAFGRNTSKNVNSVIAICVDGTFHKYVFTPDGNCNREAFDVYLDICDDDDF | –
4 | binds | – | myc-WIPI1 (protein, UniProt Q5MNZ9 1-446) MEAEAADAPPGGVESALSCFSFNQDCTSLATGTKAGYKLFSLSSVEQLDQVHGSNEIPDVYIVERLFSSSLVVVVSHTKPRQMNVYHFKKGTEICNYSYSSNILSIRLNRQRLLVCLEESIYIHNIKDMKLLKTLLDIPANPTGLCALSINHSNSYLAYPGSLTSGEIVLYDGNSLKTVCTIAAHEGTLAAITFNASGSKLASASEKGTVIRVFSVPDGQKLYEFRRGMKRYVTISSLVFSMDSQFLCASSNTETVHIFKLEQVTNSRPEEPSTWSGYMGKMFMAATNYLPTQVSDMMHQDRAFATARLNFSGQRNICTLSTIQKLPRLLVASSSGHLYMYNLDPQDGGECVLIKTHSLLGSGTTEENKENDLRPSLPQSYAATVARPSASSASTVPGYSEDGGALRGEVIPEHEFATGPVCLDDENEFPPIILCRGNQKGKTKQS | –
5 | – | no binding | endogenous WIPI1 (protein, UniProt Q5MNZ9 1-446) MEAEAADAPPGGVESALSCFSFNQDCTSLATGTKAGYKLFSLSSVEQLDQVHGSNEIPDVYIVERLFSSSLVVVVSHTKPRQMNVYHFKKGTEICNYSYSSNILSIRLNRQRLLVCLEESIYIHNIKDMKLLKTLLDIPANPTGLCALSINHSNSYLAYPGSLTSGEIVLYDGNSLKTVCTIAAHEGTLAAITFNASGSKLASASEKGTVIRVFSVPDGQKLYEFRRGMKRYVTISSLVFSMDSQFLCASSNTETVHIFKLEQVTNSRPEEPSTWSGYMGKMFMAATNYLPTQVSDMMHQDRAFATARLNFSGQRNICTLSTIQKLPRLLVASSSGHLYMYNLDPQDGGECVLIKTHSLLGSGTTEENKENDLRPSLPQSYAATVARPSASSASTVPGYSEDGGALRGEVIPEHEFATGPVCLDDENEFPPIILCRGNQKGKTKQS | –
6 | – | – | endogenous TSC1 (MEFs) (protein, UniProt Q9EP53 1-1161) MAQLANIGELLSMLDSSTLGVRDDVTAIFKESLNSERGPMLVNTLVDYYLETNSQPVLHILTTLQEPHDKHLLDKINEYVGKAATRLSILSLLGHVVRLQPSWKHKLSQAPLLPSLLKCLKMDTDVVVLTTGVLVLITMLPMIPQSGKQHLLDFFDIFGRLSSWCLKKPGHVTEVYLVHLHASVYALFHRLYGMYPCNFVSFLRSHYSMKENVETFEEVVKPMMEHVRIHPELVTGSKDHELDPRRWKTLETHDVVIECAKISLDPTEASYEDGYSVSHQLSACFPYRSADVTTSPYVDTQNSYGGSTSTPSSSSRLMLFSPPGQLPQSLSSPSTRLLPEPLQASLWSPSAVCGMTTPPTSPGNVPADLSHPYSKAFGTTAGGKGTPSGTPATSPPPAPPCPQDDCVHGSAAQASATAPRKEERADSSRPYLHRQSNDRGLEDPPGSKGSVTLRNLPDFLGDLASEEDSIEKDKEEAAISKELSEITTAEADPVVPRGGFDSPFYRDSLSGSQRKTHSAASGTQGSSVNPEPLHSSLDKHGPDTPKQAFTPIDPPSGSADVSPAGDRDRQTSLETSILTPSPCKIPPQRGVSFGSGQLPPYDHLFEVALPKTACHFVSKKTEELLKKVKGNPEEDCVPSTSPMEVLDRLIEQGAGAHSKELSRLSLPSKSVDWTHFGGSPPSDELRTLRDQLLLLHNQLLYERFKRQQHALRNRRLLRKVIRAAALEEHNAAMKDQLKLQEKDIQMWKVSLQKEQARYSQLQEQRDTMVTQLHSQIRQLQHDREEFYNQSQELQTKLEDCRNMIAELRVELKKANNKVCHTELLLSQVSQKLSNSESVQQQMEFLNRQLLVLGEVNELYLEQLQSKHPDTTKEVEMMKTAYRKELEKNRSHLLQQNQRLDASQRRVLELESLLAKKDHLLLEQKKYLEDVKSQASGQLLAAESRYEAQRKITRVLELEILDLYGRLEKDGRLRKLEEDRAEAAEAAEERLDCCSDGCTDSLVGHNEEASGHNGETRTSRPGGTRASCGGRVTGGSSSSSSELSTPEKPPSQRFSSRWEPALGEPSSSIPTTVGSLPSSKSFLGMKARELFRNKSESQCDEDSVTMSSSSLSETLKTELGKDSGTENKTSLSLDAPHPSSPNSDNVGQLHIMDYNETHPEHS | binding [1]: binds
7 | binds | – | myc-WIPI2B (protein, UniProt Q9Y4P8-4 1-436) MNLASQSGEAGAGQLLFANFNQDNTSLAVGSKSGYKFFSLSSVDKLEQIYECTDTEDVCIVERLFSSSLVAIVSLKAPRKLKVCHFKKGTEICNYSYSNTILAVKLNRQRLIVCLEESLYIHNIRDMKVLHTIRETPPNPAGLCALSINNDNCYLAYPGSATIGEVQVFDTINLRAANMIPAHDSPLAALAFDASGTKLATASEKGTVIRVFSIPEGQKLFEFRRGVKRCVSICSLAFSMDGMFLSASSNTETVHIFKLETVKEKPPEEPTTWTGYFGKVLMASTSYLPSQVTEMFNQGRAFATVRLPFCGHKNICSLATIQKIPRLLVGAADGYLYMYNLDPQEGGECALMKQHRLDGSLETTNEILDSASHDCPLVTQTYGAAAGKGTYVPSSPTRLAYTDDLGAVGGACLEDEASALRLDEDSEHPPMILRTD | binding (GFP-WIPI1 (human)): binds
8 | – | no binding | endogenous WIPI2 (protein, UniProt Q9Y4P8 1-454) MNLASQSGEAGAGQLLFANFNQDNTEVKGASRAAGLGRRAVVWSLAVGSKSGYKFFSLSSVDKLEQIYECTDTEDVCIVERLFSSSLVAIVSLKAPRKLKVCHFKKGTEICNYSYSNTILAVKLNRQRLIVCLEESLYIHNIRDMKVLHTIRETPPNPAGLCALSINNDNCYLAYPGSATIGEVQVFDTINLRAANMIPAHDSPLAALAFDASGTKLATASEKGTVIRVFSIPEGQKLFEFRRGVKRCVSICSLAFSMDGMFLSASSNTETVHIFKLETVKEKPPEEPTTWTGYFGKVLMASTSYLPSQVTEMFNQGRAFATVRLPFCGHKNICSLATIQKIPRLLVGAADGYLYMYNLDPQEGGECALMKQHRLDGSLETTNEILDSASHDCPLVTQTYGAAAGKGTYVPSSPTRLAYTDDLGAVGGACLEDEASALRLDEDSEHPPMILRTD | –
